# From the supplement of paper PMC3334620
# The full ranking holds about 33,000 sequences; the median of “E-score (-0.5 to 0.5)” is about -0.053, and the highest 2% start at about 0.37. Some of the results follow.
# Target: Hap1 (UniProt P0CE41)
# Experiment: PBM E-score (8-mer binding enrichment) (E-score (-0.5 to 0.5)); higher = stronger / more preferred TF binding; most listed sequences are background and not binding sites
# Settings: protein concentration: 200 nM; construct: GST-DNA-binding domain
# Procedure, shortened: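 Masliner-normalised scans of fluorescent anti-GST signal were the basis for scoring. That signal came from GST-tagged yeast transcription factors applied at about 100-200 nM to double-stranded universal all-10-mer Agilent arrays on fresh or once-stripped slides. Each ungapped eight-base word, pooled with its reverse complement, received an E-score from the Universal PBM Analysis Suite.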
# Chain of UniProt P0CE41 (P0CE41 whole entry): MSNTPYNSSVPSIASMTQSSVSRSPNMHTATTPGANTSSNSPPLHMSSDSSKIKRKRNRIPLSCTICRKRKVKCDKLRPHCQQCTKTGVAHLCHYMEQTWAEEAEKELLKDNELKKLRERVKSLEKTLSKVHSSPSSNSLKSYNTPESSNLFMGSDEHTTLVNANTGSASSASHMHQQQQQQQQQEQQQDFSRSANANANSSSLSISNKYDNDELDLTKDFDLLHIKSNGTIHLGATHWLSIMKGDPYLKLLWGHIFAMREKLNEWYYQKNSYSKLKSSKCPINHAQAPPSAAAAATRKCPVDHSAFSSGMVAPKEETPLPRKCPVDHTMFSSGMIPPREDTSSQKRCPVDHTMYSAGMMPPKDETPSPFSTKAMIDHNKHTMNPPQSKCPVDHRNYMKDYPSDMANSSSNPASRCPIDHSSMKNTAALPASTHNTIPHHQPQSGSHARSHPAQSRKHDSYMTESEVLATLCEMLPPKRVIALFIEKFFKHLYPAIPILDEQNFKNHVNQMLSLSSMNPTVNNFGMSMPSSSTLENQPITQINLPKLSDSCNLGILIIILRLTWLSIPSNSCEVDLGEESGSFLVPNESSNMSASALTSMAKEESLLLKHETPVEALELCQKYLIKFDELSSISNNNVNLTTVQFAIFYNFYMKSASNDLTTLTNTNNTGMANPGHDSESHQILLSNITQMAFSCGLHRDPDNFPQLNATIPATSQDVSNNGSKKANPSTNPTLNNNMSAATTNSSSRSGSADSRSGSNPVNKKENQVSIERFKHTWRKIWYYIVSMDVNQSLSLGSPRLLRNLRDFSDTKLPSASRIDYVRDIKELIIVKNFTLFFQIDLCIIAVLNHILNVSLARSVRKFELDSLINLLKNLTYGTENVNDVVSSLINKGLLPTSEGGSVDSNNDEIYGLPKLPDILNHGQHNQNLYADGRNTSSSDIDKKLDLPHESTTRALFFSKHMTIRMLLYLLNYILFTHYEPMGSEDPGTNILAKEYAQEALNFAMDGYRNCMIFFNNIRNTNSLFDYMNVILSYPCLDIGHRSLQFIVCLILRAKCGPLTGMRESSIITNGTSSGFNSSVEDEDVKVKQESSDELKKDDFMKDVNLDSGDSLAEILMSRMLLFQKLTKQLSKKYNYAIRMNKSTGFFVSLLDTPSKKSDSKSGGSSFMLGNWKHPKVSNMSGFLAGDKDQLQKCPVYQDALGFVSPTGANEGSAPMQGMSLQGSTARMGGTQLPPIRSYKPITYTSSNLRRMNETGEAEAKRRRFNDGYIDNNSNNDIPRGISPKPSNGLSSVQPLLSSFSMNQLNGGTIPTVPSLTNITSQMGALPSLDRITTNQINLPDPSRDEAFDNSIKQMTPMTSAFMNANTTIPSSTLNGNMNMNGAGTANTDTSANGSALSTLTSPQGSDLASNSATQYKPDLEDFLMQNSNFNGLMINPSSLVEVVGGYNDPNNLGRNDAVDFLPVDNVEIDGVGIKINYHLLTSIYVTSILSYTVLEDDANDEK
row,Sequence,PBM E-score
1,CCCCATGC,0.0776
2,ATCAGTAC,-0.0691
3,CAGACCCG,0.293
4,ACGGGCAA,0.058
5,CTACTATC,0.0863
6,CAATTCAG,-0.227
7,GTCTAAAC,0.0894
8,AACCAATG,-0.255
9,AATTATAG,-0.109
10,GCGTATGA,-0.0917
11,AAGCCAAC,-0.202
12,AGGTAAGA,-0.0699
13,CTAGCGAG,-0.248
14,ATCAACAT,-0.109
15,CCAGTCCC,-0.0296
16,CAGCGTGC,-0.0404
17,TGCCTCCA,-0.287
18,ATTTTCAC,0.0603
19,GACCTCTC,0.0308
20,CTCGGAAG,0.174
21,AACTACCG,0.236
22,CTAGAGAC,-0.258
23,GGGGTTGA,-0.0627
24,GATAAACC,0.174
25,CGGGTCGA,0.108

row,Sequence,PBM E-score
1,ACATGTGC,-0.00587
2,ACGGATTG,0.229
3,GATGCTGC,-0.183
4,AAAGGGTG,-0.185
5,CCTACCGA,0.0508
6,CGTTGGCA,-0.0275
7,AACATCGT,0.0338
8,ACCGTGTG,0.0184
9,GAGGTCTA,-0.299
10,GTTAGGCA,-0.257
11,CGCAATCC,0.246
12,AATTACTC,-0.0177
13,ACTGTCAG,-0.224
14,CGGCTTTC,0.259
15,AGCTAGAG,-0.28
16,ACCCCTCT,-0.00322
17,ACTCCTTC,-0.209
18,CCAAATAG,-0.14
19,CATAAATA,-0.199
20,CGGTGTAC,0.139
21,CTGAAAAC,-0.107
22,ATACTGAC,-0.0815
23,TCGAACGA,-0.153
24,GAGGTATC,0.0796
25,GCGATGGA,0.252

row,Sequence,PBM E-score
1,AGTATATA,0.177
2,CGCCCCAC,-0.148
3,AGCTTGCC,-0.108
4,AGGACTCC,0.0465
5,AACGAGCC,-0.0331
6,CCACTAGA,-0.227
7,CCCACGAG,-0.107
8,ACGTGGAG,-0.322
9,AGACTGTC,-0.108
10,CCGGCTAC,0.214
11,ATGCCCTA,-0.164
12,CCTCTTCG,0.04
13,CTTGCCTC,0.0643
14,CTGACGCC,-0.00359
15,AAAGGTAG,-0.311
16,CTGCCCCC,-0.263
17,ACCACCTA,-0.172
18,CACTGAAC,-0.0571
19,ACGCGGTC,0.179
20,ATCCCTAG,-0.146
21,AAGGGCAC,-0.161
22,GCATTGCA,-0.015
23,CGCGGCTA,0.301
24,CGGAGTCC,0.211
25,ACTCATAA,-0.101

row,Sequence,PBM E-score
1,CTCTAAAG,-0.171
2,AGCTCATG,-0.257
3,ACGCAACC,0.00928
4,GACACATC,0.0707
5,AAGAGCCA,-0.0336
6,CCTTTTAA,-0.0918
7,CTGCGATA,0.00734
8,CTCATGGA,-0.179
9,ATCCAATG,-0.241
10,AAGAGACC,-0.0519
11,GGGATGTA,0.124
12,GTATTGAC,-0.188
13,ACGACCGA,0.275
14,GGGGAAAC,0.212
15,GACACTCC,0.0522
16,CCAGGAGC,-0.101
17,CAAGCCCA,-0.29
18,CAATCGAA,0.126
19,GTTTCTCA,-0.102
20,TAGAGGCA,-0.304
21,CACCATCA,-0.22
22,AAGCTGGA,-0.144
23,AACTGGTG,-0.28
24,AGATACGG,0.144
25,TAAAGGGA,-0.153

row,Sequence,PBM E-score
1,AAGTCCGA,0.467
2,GATATAGC,0.235
3,CACCATAA,-0.0857
4,TACCAGCA,-0.0959
5,ATCATTCG,0.0233
6,GGGAGCAC,0.0847
7,AGGTGTGG,-0.00938
8,ACCTGTGA,-0.149
9,GTCTAGGA,-0.281
10,GTATTTTA,-0.155
11,AGATGGCG,-0.0276
12,ACTTATAA,0.0433
13,TCTGAGAA,-0.245
14,ATAAGTCA,-0.0919
15,CAAGCCCG,0.182
16,AGTAGCAG,-0.173
17,ATCGCGAG,0.119
18,GAAGTTAC,0.0894
19,GATTGTAC,0.0804
20,CCAATACA,-0.239
21,TCATGAGA,-0.164
22,CAAAGGAG,-0.137
23,CATGACGA,-0.0159
24,GACGGCCA,0.0206
25,ATAAAGAG,-0.194

row,Sequence,PBM E-score
1,AAACGTGT,-0.104
2,CACTGATG,-0.289
3,GCGCCGTA,0.222
4,CAAGCCGC,-0.0838
5,GCTTTGTA,-0.0892
6,ATTGCATG,-0.0278
7,CCCTGCCC,-0.215
8,AGTAAATG,0.078
9,AACGATCC,-0.0248
10,ACTTTGAG,-0.228
11,ACGGTACA,-0.122
12,AATGGTCG,-0.0147
13,AAGGGGGT,-0.253
14,CAGTCCTC,-0.123
15,ATCCCGTC,0.0828
16,CGTCCCTC,-0.256
17,CCGTTTCC,0.199
18,AAGTGGCT,-0.0157
19,GCAGACTA,-0.309
20,CATGTTCG,-0.00257
21,GGGATGGA,0.0825
22,TAACGTGA,-0.306
23,CCGAAAGC,0.369
24,CGAAAAAA,0.145
25,ATCCCAGC,0.0523

row,Sequence,PBM E-score
1,CTTACCTC,0.0631
2,ACGCTGCG,-0.0275
3,AAGTAGTC,-0.0371
4,CAAGGCCG,0.123
5,CGCTGCAG,-0.0283
6,TCAGAGGA,-0.157
7,AGCCACTC,-0.151
8,GGCATAGA,-0.00684
9,GATGTTAC,0.0459
10,CGAACCAA,0.0309
11,AAAGTTCG,0.083
12,GGACTTAA,0.443
13,AAAATCAC,-0.0485
14,CCCGCGAG,0.179
15,AAGGTGAA,-0.0166
16,AGTCAAGA,-0.26
17,ATTTGCTA,-0.0549
18,AAAATTTT,0.212
19,AACCGTAG,-0.0665
20,GTAGAAAC,0.0346
21,CCTCAACA,-0.0823
22,CGCTCAAG,-0.136
